Measurements published in PubChem BioAssay AID1956 (SRMLSC, 2009).
This is one part of the list. The main result of the screen is listed elsewhere. These columns were measured beside it and carry no call.

Assay: enhancers of HSV replication in host cells, fold increase, host cell viability (AID 1956); note: tested in PC3 cells
Details: HSV replication augmentation in cells; fold increase: measured here: primary screen fold increase 10 uM, at 10 µM, stronger effect = higher value; viability: measured here: host cell viability series, at 25 µM, stronger effect = lower value

Compound | fold increase | viability
Cc1cc(NC(=O)/C(C#N)=C/c2ccc(-c3ccc(SC(F)F)cc3)o2)n(-c2ccccc2)n1 | 1.96 | 79.9%
CCOC(=O)/C(C#N)=C(C)/C=C1\Sc2ccccc2N1CC | 1.95 | 92.2%
CCOC1=C/C(=C/c2c(N)n3nc(-c4ccccc4)sc3nc2=O)C=CC1=O | 4.48 | 94.1%
CCOc1ccc(S(=O)(=O)Nc2nc3ccccc3nc2Nc2ccc(N3CCOCC3)cc2)cc1 | 1.97 | 101%
O=[N+]([O-])c1ccc(N/N=C/c2cn(-c3ccccc3)nc2-c2ccccc2)cc1 | 1.19 | –
O=C(Nc1cccnc1Cl)c1ccc(=O)oc1 | 1.39 | 97.2%
Cc1cccn2c(=O)c(/C=C3\SC(=S)N(CC(C)C)C3=O)c(NCCCOC(C)C)nc12 | 2.21 | 97.8%
Cc1onc(-c2ccccc2Cl)c1C(=O)NCCn1ccc2ccccc21 | 1.35 | 87.5%
CCN(CC)c1ccc(/C=N/Nc2nc3ccccc3[nH]2)c(O)c1 | 1.72 | –
CCCCn1c(NS(=O)(=O)c2ccccc2)c(S(=O)(=O)c2ccc(C)cc2)c2nc3ccccc3nc21 | 1.6 | 96.7%
N#CC1(C#N)CC(C=O)=C(N)C1(C#N)CC(=O)c1ccc(F)cc1 (stereo not drawn) | 1.79 | 96.2%
COc1cc(N=Nc2cccc(S(N)(=O)=O)c2)c2ccccc2c1N | 1.78 | –
CCOC(=O)C1=C(CSc2nc3c(cc2C#N)CN(C)CC3)OC(N)=C(C#N)C1c1ccncc1 (stereo not drawn) | 1.51 | 99.7%
CCCCn1c(N)c(N(CCOC)C(=O)CN2c3ccccc3CC2C)c(=O)[nH]c1=O (stereo not drawn) | 2.2 | 98.5%
CCCN1C(=O)C2(C(C(=O)c3ccc(C)o3)=C(O)C(=O)N2CCCOC)c2ccccc21 (stereo not drawn) | 1.36 | 101%
COc1ccccc1N1CCN(S(=O)(=O)c2ccc(Cl)s2)CC1 | 1.37 | 101%
C/C(=N/Nc1nc(-c2ccccc2)c(CC(=O)O)s1)c1ccccc1 | 1.48 | 91.3%
c1ccc(-c2noc(CSc3nnc(Cc4cccs4)n3-c3ccccc3)n2)cc1 | 1.35 | 97%
Cc1cccc(-n2c(O)c(C=Nc3ccc4c(c3)OCO4)c3ccccc3c2=O)n1 | 1.35 | –
CCN(CC)c1ccc(/C=N/Nc2cccc(C)c2)c(O)c1 | 1.34 | –
O=C(Cn1cnc2cc([N+](=O)[O-])ccc2c1=O)Nc1ccc(N2CCOCC2)cc1 | 1.32 | –
OC1CNCc2cc3c(cc21)OCCO3 (stereo not drawn) | 1.49 | 94.9%
CCOC(=O)c1c(/N=C/c2ccc(C)cc2O)sc2c1CCC2 | 1.67 | –
Cc1nnc(NC(=O)c2sc3nc(-c4cccs4)cc(C(F)(F)F)c3c2N)s1 | 3.51 | 86.1%
O=C(NCc1ccco1)c1ccc2c(c1)C(=O)c1ccccc1-2 | 1.45 | 87.3%
